In all, about 110,000 compounds went through this assay and about 230 (0.21%) showed an effect of 50% or more. The list shows a part of the results.
What follows are compounds tested against DPAP1 (Plasmodium falciparum, UniProt Q8IIJ9) (assay: primary screen, percent inhibition; read by cleavage of a fluorogenic dipeptide substrate; higher = more effect of the substance).
Parameters: species or system P. falciparum D10 trophozoite lysates; single well
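Note: 30 min substrate incubation versus DMSO and 10 µM JCP410 controls.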

Chain of DPAP1 (Q8IIJ9 whole entry, looked up): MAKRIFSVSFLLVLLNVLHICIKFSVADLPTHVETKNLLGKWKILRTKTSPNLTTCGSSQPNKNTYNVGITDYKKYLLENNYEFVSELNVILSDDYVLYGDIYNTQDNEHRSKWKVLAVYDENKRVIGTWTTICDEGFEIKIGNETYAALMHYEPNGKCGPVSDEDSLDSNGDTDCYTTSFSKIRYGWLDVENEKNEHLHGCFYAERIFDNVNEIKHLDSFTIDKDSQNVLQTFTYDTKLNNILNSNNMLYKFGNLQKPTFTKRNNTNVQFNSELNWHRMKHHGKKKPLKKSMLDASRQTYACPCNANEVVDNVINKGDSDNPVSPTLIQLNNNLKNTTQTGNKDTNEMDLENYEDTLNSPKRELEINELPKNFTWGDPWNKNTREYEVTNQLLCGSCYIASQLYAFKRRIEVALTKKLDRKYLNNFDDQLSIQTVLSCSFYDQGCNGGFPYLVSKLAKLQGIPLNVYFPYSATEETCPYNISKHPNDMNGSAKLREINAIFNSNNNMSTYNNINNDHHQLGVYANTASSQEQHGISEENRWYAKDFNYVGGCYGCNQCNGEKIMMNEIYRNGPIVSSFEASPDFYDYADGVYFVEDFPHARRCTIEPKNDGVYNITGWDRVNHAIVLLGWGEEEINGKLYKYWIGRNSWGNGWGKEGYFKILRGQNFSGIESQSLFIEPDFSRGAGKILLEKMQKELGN

SMILES | % Inhibition @ 10 uM [%]
COCc1cc(O)n2nc(N)nc2n1 | 3.79
COc1ccc2ccccc2c1CN1CCOCC1 | -6.82
Cc1cc(C)c(C(=O)CSc2nc3cccnc3[nH]2)cc1C | -3.53
CCc1nc2cccnc2n1-c1ccc(CC(=O)O)cc1 | 3.24
CC(C)Cn1c(=O)c2ccccc2n2c(CCC(=O)N3CCN(c4ccccn4)CC3)nnc12 | -0.692
CC1=NN(C2=NS(=O)(=O)c3ccccc32)C(C)(O)C1 (centres unmarked) | 2.26
COc1ccc(NC(=O)c2cccc(S(=O)(=O)Nc3ccccc3C)c2)cc1 | 1.44
CCN1CCN(C(=O)C2CCCN(S(=O)(=O)N3CCCCCC3)C2)CC1 (centres unmarked) | 3.96
Cc1nc(NCc2ccco2)c2c3c(sc2n1)CCCC3 | -0.424
CC(C)CC(=O)n1nc(-c2ccco2)nc1NCc1cccs1 | 1.9
COc1cc(S(=O)(=O)N2CCOCC2)c(OC)cc1Cl | 2.05
COc1cccc(CN2CCN(Cc3ccco3)CC2)c1OC | -7.15
Cc1n[nH]c(C)c1CCCCCOc1ccc(F)cc1 | -6.12
CCOc1ccc(C(=O)C2=C(O)C(=O)N(Cc3cccnc3)C2c2ccc(C(C)C)cc2)c(C)c1 (centres unmarked) | 4.54
COc1ccc2c(Cl)c(C(=O)N3CCOCC3)sc2c1 | 3.05
CC(C)CS(=O)(=O)C1=NSC2=NC(=O)/C(=C\c3ccc(OCC(=O)O)cc3)C(=N)N21 | -3.62
c1cnc(N2CCN(Cc3cccnc3)CC2)nc1 | -0.969
COc1ccc(C2=NN(CCC(=O)NCc3ccccc3Cl)C(=O)CC2)cc1 | 0.718
COc1cccc(/C=C2\SC(Nc3ccc(Cl)cc3)=NC2=O)c1OC | 0.475
Cc1nn(CC(=O)N2CCC(Cc3ccccc3)CC2)c(=O)c2c1sc1ccccc12 | -5.78
COc1ccc(C2=NNc3nc4c(c(=O)[nH]c(=O)n4C)n3C2)cc1 | -3.69
Cc1ccc(NC(=O)c2ccc3c(c2)OCO3)cc1Cl | 1.84
Cc1ccc(-n2nc3c(N4CCCC(C(=O)NCCC5=CCCCC5)C4)nnc(C)c3c2C)cc1 (centres unmarked) | 7.55
CCOC(=O)N1CCN(c2c(NCc3ccccc3Cl)c(=O)c2=O)CC1 | 0.277
CC1(C)CC(Nc2nc(Cl)c(C#N)c(Cl)c2Cl)CC(C)(C)N1 | 2.24

SMILES | % Inhibition @ 10 uM [%]
CN1C(=O)C(C2c3ccccc3Oc3ccccc32)C(=O)N(C)C1=O | -6.07
CC1(C)CC(=O)C2=C(C1)OC(N)=C(C#N)C2c1ccc(C(C)(C)C)s1 (centres unmarked) | 5.66
Cc1cc(F)c(F)c(C(=O)N2CCOCC2)c1Cl | -2.97
COc1ccc(C(c2c(O)ccc3ccccc23)N2CCOCC2)cc1 (centres unmarked) | -0.0217
COc1ccc(C2=N/C(=C\c3cccs3)C(=O)O2)cc1Br | -5.29
Cc1oc(-c2ccccc2)nc1C12CC3CC(CC(C3)C1)C2 | 0.962
Cc1ccc2c(c1)c(Sc1ccccc1)c(CC(=O)NCCO)n2C | -3.04
CCCOc1ccc(Cc2nn3c(=O)/c(=C\c4ccc(OCC)c(OC)c4)sc3nc2=O)cc1 | 1.23
CCN1CC2=C(OC(N)=C(C#N)C2c2ccc(OC)cc2)/C(=C/c2ccc(OC)cc2)C1 (centres unmarked) | 4.3
O=C(CCNC(=O)OCc1ccccc1)NC1CCCCCC1 | 1.13
COc1cccc(/C=C2/SC(N)=NC2=O)c1OC | 1.58
O=C(NCc1ccccc1)c1ccc(Cl)c(S(=O)(=O)N2CCCCCC2)c1 | 18.2
O=C(O)C1CC=CC[C@@H]1c1cccc2ccccc12 (some centres unmarked) | -5.71
Cc1cccc(CN2CCN(C(=O)c3ccccc3F)CC2)c1 | -1.6
O=C(c1ccc(NS(=O)(=O)c2cccc(Cl)c2)cc1)N1CCCCCC1 | -4.56
O=C1C(=O)N(CCn2c3ccccc3c3nc4ccccc4nc32)c2ccccc21 | 3.91
Cc1ccc(-c2cc(C(=O)Nc3cc(C)on3)no2)cc1 | 3.54
O=C(Nc1ccc(F)c(Cl)c1)c1ccccc1NC(=O)C1CC=CCC1C(=O)O (centres unmarked) | 2.48
COc1ccc(-c2csc3ncn(CC(=O)Nc4ccc(Cl)cc4C)c(=O)c23)cc1OC | -2.09
CC(C)(C)c1ccc(C(=O)NC2=NC(=O)CC(c3ccccc3F)N2)cc1 (centres unmarked) | 5.1
O=C(N/C(=C\c1cccc(F)c1)C(=O)N1CC2CC(C1)c1cccc(=O)n1C2)c1ccco1 (centres unmarked) | 3.08
CCn1c(C(=O)NCCCN2CCN(Cc3ccccc3)CC2)cc2sccc21 | -10.5
CCOC(=O)C1=C(C)N=C(SCc2ccc(C(=O)O)cc2)NC1c1ccc(OCC)cc1 (centres unmarked) | -1.47
O=C(O)c1ccc(Oc2ccc(NC(=O)C3CC3)cc2)cc1C(=O)O | 0.635
O=S(=O)(c1ccccc1)N(CCO)Cc1ccccc1 | -3.25

Source: paper PMC6919601, “Identification of Plasmodium dipeptidyl aminopeptidase allosteric inhibitors by high throughput screening” (PLoS ONE, 2019)
